# Source: the supplement of paper PMC8728848
# This is one part of a sample in which the strongest signals are shown more often than they occur.
# B1: LPQ (Mycobacterium tuberculosum), A0A045GNF2 (protein)
# chain: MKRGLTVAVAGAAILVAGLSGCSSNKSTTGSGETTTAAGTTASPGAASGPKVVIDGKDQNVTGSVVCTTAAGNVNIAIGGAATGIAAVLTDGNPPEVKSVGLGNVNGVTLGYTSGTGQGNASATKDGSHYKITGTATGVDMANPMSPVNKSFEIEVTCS
# Experiments:
# Assay in all cases: glycan array binding signal (z-score within array); higher = stronger binding
# Conditions in all cases: glycan notation: IUPAC condensed, linker removed
# [1] = target: Fuc(a1-2)Gal(b1-3)GlcNAc(b1-2)Man(a1-3)[Fuc(a1-2)Gal(b1-3)GlcNAc(b1-2)Man(a1-6)]Man(b1-4)GlcNAc(b1-4)GlcNAc
# [2] = target: Fuc(a1-2)Gal(b1-4)GlcNAc(b1-2)Man(a1-3)[Fuc(a1-2)Gal(b1-4)GlcNAc(b1-2)Man(a1-6)]Man(b1-4)GlcNAc(b1-4)GlcNAc
# [3] = target: Fuc(a1-2)[Gal(a1-3)]Gal(b1-4)GlcNAc(b1-2)Man(a1-3)[Fuc(a1-2)[Gal(a1-3)]Gal(b1-4)GlcNAc(b1-2)Man(a1-6)]Man(b1-4)GlcNAc(b1-4)GlcNAc
# [4] = target: Fuc(a1-2)[GalNAc(a1-3)]Gal(b1-4)GlcNAc
# [5] = target: Fuc(a1-3)[Gal(b1-4)]GlcNAc(b1-2)Man(a1-6)[Gal(b1-4)GlcNAc(b1-2)Man(a1-3)]Man(b1-4)GlcNAc(b1-4)GlcNAc
# [6] = target: Fuc(a1-3)[Neu5Ac(a2-3)]Gal(b1-4)GlcNAc(b1-3)GalNAc
# [7] = target: Gal(a1-3)Gal(b1-4)[Fuc(a1-3)]GlcNAc(b1-2)Man(a1-3)[Gal(a1-3)Gal(b1-4)[Fuc(a1-3)]GlcNAc(b1-2)Man(a1-6)]Man(b1-4)GlcNAc(b1-4)GlcNAc
# [8] = target: Gal(b1-3)Gal(b1-4)GlcNAc(b1-2)Man(a1-3)[Gal(b1-3)Gal(b1-4)GlcNAc(b1-2)Man(a1-6)]Man(b1-4)GlcNAc(b1-4)GlcNAc
# [9] = target: Gal(b1-3)[Fuc(a1-4)]GlcNAc(b1-2)Man(a1-3)[Gal(b1-3)[Fuc(a1-4)]GlcNAc(b1-2)Man(a1-6)]Man(b1-4)GlcNAc(b1-4)GlcNAc
# [10] = target: Gal(b1-4)GlcNAc(b1-2)Man(a1-6)Man(b1-4)GlcNAc(b1-4)GlcNAc
# [11] = target: Gal(b1-4)GlcNAc(b1-3)Gal(b1-4)GlcNAc
# [12] = target: Gal3S(b1-4)[Fuc(a1-3)]Glc
# Gal3S6S(b1-4)GlcNAc = target: Gal3S6S(b1-4)GlcNAc
# [13] = target: GlcNAc(a1-4)Gal(b1-4)GlcNAc
# GlcNAc(b1-4)GlcNAc = target: GlcNAc(b1-4)GlcNAc
# [14] = target: Neu5Ac(a2-3)Gal(b1-3)[Fuc(a1-4)]GlcNAc(b1-3)Gal(b1-3)[Fuc(a1-4)]GlcNAc
# [15] = target: Neu5Ac(a2-3)Gal(b1-4)GlcNAc(b1-2)Man(a1-3)[Neu5Ac(a2-6)Gal(b1-4)GlcNAc(b1-2)Man(a1-6)]Man(b1-4)GlcNAc(b1-4)GlcNAc
# Neu5Ac(a2-6)Gal = target: Neu5Ac(a2-6)Gal
binder,measurement,setting,value
B1,glycan array binding signal (z-score),[1],3.85
same,glycan array binding signal (z-score),[2],-0.251
same,glycan array binding signal (z-score),[3],2.87
same,glycan array binding signal (z-score),[4],-0.119
same,glycan array binding signal (z-score),[5],-0.606
same,glycan array binding signal (z-score),[6],4.19
same,glycan array binding signal (z-score),[7],15.9
same,glycan array binding signal (z-score),[8],0.575
same,glycan array binding signal (z-score),[9],1.6
same,glycan array binding signal (z-score),[10],2.36
same,glycan array binding signal (z-score),[11],-0.242
same,glycan array binding signal (z-score),[12],-0.733
same,glycan array binding signal (z-score),Gal3S6S(b1-4)GlcNAc,-0.26
same,glycan array binding signal (z-score),[13],-0.03
same,glycan array binding signal (z-score),GlcNAc(b1-4)GlcNAc,0.208
same,glycan array binding signal (z-score),[14],-0.302
same,glycan array binding signal (z-score),[15],-0.075
same,glycan array binding signal (z-score),Neu5Ac(a2-6)Gal,-0.395
